The supplement of paper PMC12217912
This is one part of the list. Sequences were assembled here from the parent chain. Values near 0.05 are background.

B1: TEV protease; numbered along this chain (parent)
chain: MGESLFKGPRDYNPISSSICHLTNESDGHTTSLYGIGFGPFIITNKHLFRRNNGTLVVQSLHGVFKVKDTTTLQQHLVDGRDMIIIRMPKDFPPFPQKLKFREPQREERICLVTTNFQTKSMSSMVSDTSCTFPSGDGIFWKHWIQTKDGQCGSPLVSTRDGFIVGIHSASNFTNTNNYFTSVPKNFMELLTNQEAQQWVSGWRLNADSVLWGGHKVFMVKPEEPFQPVKEATQL

Variants of: B1
Assay: raw area under fraction-flipped curve 0-4 h after induction (AUC4h, not background-subtracted), DNA-recorder readout of cleavage of the substrate (dimensionless); higher = more cleavage of the substrate by the protease variant
Settings: temperature: 34 °C; time window: 0-4 h after rhamnose induction
Method: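 In vivo DNA recorder in E. coli TOP10(DE3) ΔrhaA at 34 °C. Each TEVp single-site mutant (parent TEVp 0) is paired with a single-site variant of the 7-mer TEVs (canonical ENLYFQ|S). The substrate sits between flexible linkers in a Bxb1-sfGFP-TEVs-SsrA fusion, so cleavage stabilises Bxb1 and speeds flipping of a recombination array, read by NGS. The value is the raw area under the fraction-flipped curve over 0-4 h after rhamnose induction (AUC4h), with ≥20 reads per time point. It is not background-subtracted; inactive controls average about 0.047.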
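Further: Bxb1 expression induced with 0.2% (w/v) L-rhamnose at OD600 near 0.5, cultures sampled hourly, flipped fraction per protease–substrate barcode pair counted by paired-end Illumina sequencing.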

| Variant | area with substrate ENLAFQS | area with substrate ENLCFQS | area with substrate ENLDFQS | area with substrate ENLEFQS | area with substrate ENLFFQS | area with substrate ENLGFQS | area with substrate ENLHFQS | area with substrate ENLIFQS | area with substrate ENLKFQS | area with substrate ENLLFQS | area with substrate ENLNFQS | area with substrate ENLRFQS | area with substrate ENLSFQS | area with substrate ENLWFQS | area with substrate ENLPFQS | area with substrate ENLQFQS | area with substrate ENLVFQS | area with substrate ENLMFQS | area with substrate ENLTFQS |
| --- | --- | --- | --- | --- | --- | --- | --- | --- | --- | --- | --- | --- | --- | --- | --- | --- | --- | --- | --- |
| MGESLFKGPRDYNPISSSICHLTNESDGHTTSLYGIGFGPFIITNKHLFRRNNGTLVVQSLHGVFKVKDTTTLQQHLVDGRDMIIIRMPKDFPPFPQKLKFREPQREERICLVTTNFQTKSMSSMVSDTSCTFPSGDGIFWKHWIQTKDGQCGSPLVSTEDGFIVGIHSASNFTNTNNYFTSVPKNFMELLTNQEAQQWVSGWRLNADSVLWGGHKVFMVKPEEPFQPVKEATQL [R160E] | 0.099 | 0.0866 | 0.0604 | 0.0588 | 0.0864 | 0.0743 | 0.0753 | 0.0698 | 0.0768 | 0.0738 | 0.0765 | 0.0802 | 0.0722 | 0.0608 |  |  |  |  |  |
| MGESLFKGPRDYNPISSSICHLTNESDGHTTSLYGIGFGPFIITNKHLFRRNNGTLVVQSLHGVFKVKDTTTLQQHLVDGRDMIIIRMPKDFPPFPQKLKFREPQREERICLVTTNFQTKSMSSMVSDTSCTFPSGDGIFWKHWIQTKDGQCGSPLVSTCDGFIVGIHSASNFTNTNNYFTSVPKNFMELLTNQEAQQWVSGWRLNADSVLWGGHKVFMVKPEEPFQPVKEATQL [R160C] | 0.0869 |  |  | 0.0687 | 0.084 |  | 0.0634 |  | 0.0605 | 0.0773 | 0.0666 |  | 0.0711 | 0.0657 | 0.0629 | 0.0542 | 0.0831 |  |  |
| MGESLFKGPRDYNPISSSICHLTNESDGHTTSLYGIGFGPFIITNKHLFRRNNGTLVVQSLHGVFKVKDTTTLQQHLVDGRDMIIIRMPKDFPPFPQKLKFREPQREERICLVTTNFQTKSMSSMVSDTSCTFPSGDGIFWKHWIQTKDGQCGSPLVSTGDGFIVGIHSASNFTNTNNYFTSVPKNFMELLTNQEAQQWVSGWRLNADSVLWGGHKVFMVKPEEPFQPVKEATQL [R160G] | 0.07 | 0.0684 | 0.0623 | 0.0557 | 0.0811 | 0.0051 | 0.042 | 0.0717 | 0.0841 |  | 0.0636 | 0.0593 | 0.0798 | 0.0787 | 0.0687 | 0.0692 |  |  |  |
| MGESLFKGPRDYNPISSSICHLTNESDGHTTSLYGIGFGPFIITNKHLFRRNNGTLVVQSLHGVFKVKDTTTLQQHLVDGRDMIIIRMPKDFPPFPQKLKFREPQREERICLVTTNFQTKSMSSMVSDTSCTFPSGDGIFWKHWIQTKDGQYGSPLVSTRDGFIVGIHSASNFTNTNNYFTSVPKNFMELLTNQEAQQWVSGWRLNADSVLWGGHKVFMVKPEEPFQPVKEATQL [C152Y] | 0.0635 | 0.0523 |  |  |  |  | 0.0592 |  | 0.0677 | 0.0364 | 0.061 | 0.0622 | 0.0546 |  | 0.0368 |  | 0.0742 |  |  |
| MGESLFKGPRDYNPISSSICHLTNESDGHTTSLYGIGFGPFIITNKHLFRRNNGTLVVQSLHGVFKVKDTTTLQQHLVDGRDMIIIRMPKDFPPFPQKLKFREPQREERICLVTTNFQTKSMSSMVSDTSCTFPSGDGIFWKHWIQTKDGQTGSPLVSTRDGFIVGIHSASNFTNTNNYFTSVPKNFMELLTNQEAQQWVSGWRLNADSVLWGGHKVFMVKPEEPFQPVKEATQL [C152T] | 0.0476 | 0.0589 | 0.063 | 0.0535 | 0.0614 |  | 0.0613 | 0.0648 | 0.0552 | 0.0484 | 0.0678 |  |  |  | 0.0509 | 0.0525 |  |  |  |
| MGESLFKGPRDYNPISSSICHLTNESDGHTTSLYGIGFGPFIITNKHLFRRNNGTLVVQSLHGVFKVKDTTTLQQHLVDGRDMIIIRMPKDFPPFPQKLKFREPQREERICLVTTNFQTKSMSSMVSDTSCTFPSGDGIFWKHWIQTKDGQRGSPLVSTRDGFIVGIHSASNFTNTNNYFTSVPKNFMELLTNQEAQQWVSGWRLNADSVLWGGHKVFMVKPEEPFQPVKEATQL [C152R] | 0.0613 |  |  | 0.0597 | 0.0677 | 0.0925 | 0.051 | 0.0663 | 0.0615 |  | 0.0658 | 0.045 | 0.057 | 0.0719 | 0.0673 | 0.0619 |  |  |  |
| MGESLFKGPRDYNPISSSICHLTNESDGHTTSLYGIGFGPFIITNKHLFRRNNGTLVVQSLHGVFKVKDTTTLQQHLVDGRDMIIIRMPKDFPPFPQKLKFREPQREERICLVTTNFQTKSMSSMVSDTSCTFPSGDGIFWKHWIQTKDGQCGSPLVSTRDGFICGIHSASNFTNTNNYFTSVPKNFMELLTNQEAQQWVSGWRLNADSVLWGGHKVFMVKPEEPFQPVKEATQL [V165C] | 0.0503 |  | 0.0602 | 0.066 |  |  |  |  |  | 0.0646 | 0.0567 | 0.061 | 0.0647 | 0.0852 | 0.0591 | 0.0797 | 0.0552 | 0.0606 | 0.0604 |
| MGESLFKGPRDYNPISSSICHLTNESDGHTTSLYGIGFGPFIITNKHLFRRNNGTLVVQSLHGVFKVKDTTTLQQHLVDGRDMIIIRMPKDFPPFPQKLKFREPQREERICLVTTNFQTKSMSSMVSDTSCTFPSGDGIFWKHWIQTKDNQCGSPLVSTRDGFIVGIHSASNFTNTNNYFTSVPKNFMELLTNQEAQQWVSGWRLNADSVLWGGHKVFMVKPEEPFQPVKEATQL [G150N] | 0.0516 | 0.0556 | 0.0746 | 0.0663 | 0.0683 |  | 0.062 | 0.0564 | 0.0592 |  | 0.0388 | 0.0713 | 0.064 |  | 0.0744 | 0.0761 |  | 0.0604 |  |
| MGESLFKGPRDYNPISSSICHLTNESDGHTTSLYGIGFGPFIITNKHLFRRNNGTLVVQSLHGVFKVKDTTTLQQHLVDGRDMIIIRMPKDFPPFPQKLKFREPQREERICLVTTNFQTKSMSSMVSDTSCTFPSGDGIFWKHWIQTKDTQCGSPLVSTRDGFIVGIHSASNFTNTNNYFTSVPKNFMELLTNQEAQQWVSGWRLNADSVLWGGHKVFMVKPEEPFQPVKEATQL [G150T] | 0.0692 |  | 0.0624 | 0.0635 | 0.066 |  | 0.0591 | 0.0601 | 0.106 | 0.0573 | 0.0668 | 0.0562 | 0.0487 | 0.0615 | 0.061 | 0.0518 | 0.0588 |  |  |
